# In PMC7819943, “Rice protein-binding microarrays: a tool to detect cis-acting elements near promoter regions in rice”:
# The list shows a part of the results.
# Molecular target: T1, OsWOX13 (Oryza sativa, UniProt Q5QMM3 1-267)
# T1 sequence: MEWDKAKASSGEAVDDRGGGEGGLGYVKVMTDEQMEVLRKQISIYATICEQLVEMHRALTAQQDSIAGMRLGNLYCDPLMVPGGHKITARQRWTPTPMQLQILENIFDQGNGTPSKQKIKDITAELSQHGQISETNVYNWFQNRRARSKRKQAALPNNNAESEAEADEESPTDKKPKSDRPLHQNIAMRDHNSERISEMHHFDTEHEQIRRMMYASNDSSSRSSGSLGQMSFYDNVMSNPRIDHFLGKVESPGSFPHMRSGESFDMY
# Test: protein-binding microarray (RPBM); PBS, 2% BSA, 51.3 ng/ul salmon testes DNA, 50 uM zinc acetate, 200 nM TF, 25 C, 1 h; high values mean tight binding
# Details: protein: recombinant; tags: N-terminal polyhistidine and DsRed monomer fusion (pET32a); label: CyDye5-dUTP incorporated in the synthesized complementary strand; 3' TTTTT single-stranded linker to array surface; dsDNA, one strand shown
# In short: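 Binding signal here means per-feature fluorescence intensity in arbitrary units. The values were read on an Axon 4000B scanner after a custom Agilent array, double-stranded by primer extension with Cy5-dUTP, was incubated with 200 nM protein at 25 °C for 1 h in PBS with 2% BSA, salmon testes DNA and 50 µM zinc acetate, then washed. The proteins were transcription factors with an N-terminal polyhistidine tag and DsRed, expressed in E. coli BL21-CodonPlus and purified on Ni–NTA.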
row,Sequence,binding signal
1,CTAACCACCCAATCAACAAAAGAGTACGTAAGGCCGTTGCCGGAGTCACCTAGTGCAG,5600 fluorescence intensity (a.u.)
2,AATTAATCATTACTAACTTGTTTCATTTTACGTGGACTAACGGAGTCACCTAGTGCAG,5560 fluorescence intensity (a.u.)
3,AAGAATAATTACTCGTAATTACGAGTATCCGTGTCAAGTCCGGAGTCACCTAGTGCAG,42000 fluorescence intensity (a.u.)
4,CTTTGACTTGCACAAATTTGATGGCTTTATCAGTTTATTTCGGAGTCACCTAGTGCAG,9390 fluorescence intensity (a.u.)
5,TCAATGGCATGATTACTAATAGAGGAATCGTAATTACATTCGGAGTCACCTAGTGCAG,7000 fluorescence intensity (a.u.)
6,GTGACATCATAATTTAGATTTAACTTATTCGTGCATATTACGGAGTCACCTAGTGCAG,9460 fluorescence intensity (a.u.)
7,TTCCTAGGATTTTGCATCTTGATTGATCACTAGTGCCATTCGGAGTCACCTAGTGCAG,18100 fluorescence intensity (a.u.)
8,TCTCTGTGATTGAAACCTTGTCTCTGAAATGCTTGAGGGCCGGAGTCACCTAGTGCAG,55400 fluorescence intensity (a.u.)
9,TACTCGCGCCAATCAATCATCCCCGGCGCGGGGAAAGCAACGGAGTCACCTAGTGCAG,14500 fluorescence intensity (a.u.)
10,ATAATATAATATATAATCAATCATGAGTGAAACGATGAGACGGAGTCACCTAGTGCAG,33800 fluorescence intensity (a.u.)
11,AAGCTAACTATAAATTAATTGTTTCTCACAAACATATCCTCGGAGTCACCTAGTGCAG,16400 fluorescence intensity (a.u.)
12,TTTAATTGTCCAAATTTGTGAAAGTGTGCCAAAATTTGGGCGGAGTCACCTAGTGCAG,31400 fluorescence intensity (a.u.)
13,CACCATGATTACTCCTAATCATGAACTCCTGTTTCTTGGGCGGAGTCACCTAGTGCAG,40500 fluorescence intensity (a.u.)
14,GAAATACTACTCCTCCAATTGATTGATTCCCTTTCTCCTCCGGAGTCACCTAGTGCAG,20500 fluorescence intensity (a.u.)
15,TTCTCAATTTAGAGACTTAACAGCAGAAGAAAAGATGGAACGGAGTCACCTAGTGCAG,13000 fluorescence intensity (a.u.)
16,AACTAATTATTTAATTTGCAAGTACGGATGTTTACCTCAGCGGAGTCACCTAGTGCAG,35700 fluorescence intensity (a.u.)
17,GTGCAGTTTATACATTAACATGTTAATCCCACTTTACTACCGGAGTCACCTAGTGCAG,6970 fluorescence intensity (a.u.)
18,CATGGCGTAATTAGACTCAAAAGATTCGTCTCGCGAATTACGGAGTCACCTAGTGCAG,6800 fluorescence intensity (a.u.)
19,CACACCATCAATCACACGTACGAGCAGTTTCCGCTTCTTTCGGAGTCACCTAGTGCAG,16700 fluorescence intensity (a.u.)
20,GGATGATTATATTCTTCTTGCCTAATAAGTTGTACTTTGACGGAGTCACCTAGTGCAG,35000 fluorescence intensity (a.u.)
21,AGTAATAAATTGATTGTATGTTATCTGGTGGTCTGAAACTCGGAGTCACCTAGTGCAG,57400 fluorescence intensity (a.u.)
22,TTTCTTAATTTCTTAATTGTATTTCTATAAGGACTCTATACGGAGTCACCTAGTGCAG,6550 fluorescence intensity (a.u.)
23,AGAAATTAATACATAGGATTTTGCAAACTCCATTTCTTTGCGGAGTCACCTAGTGCAG,3590 fluorescence intensity (a.u.)
